According to the GPR68 mutational scans of Howard et al. (2025):
Scores whose standard error is large were omitted. The source holds two more conditions with little spread; they are left out. Read del as a deletion of the residues named and ins as an insertion between two positions. For part of these data: The concentration of ogerin is not given here.

B1: GPR68, Q15743 (parent)
chain: MGNITADNSSMSCTIDHTIHQTLAPVVYVTVLVVGFPANCLSLYFGYLQIKARNELGVYLCNLTVADLFYICSLPFWLQYVLQHDNWSHGDLSCQVCGILLYENIYISVGFLCCISVDRYLAVAHPFRFHQFRTLKAAVGVSVVIWAKELLTSIYFLMHEEVIEDENQHRVCFEHYPIQAWQRAINYYRFLVGFLFPICLLLASYQGILRAVRRSHGTQKSRKDQIQRLVLSTVVIFLACFLPYHVLLLVRSVWEASCDFAKGVFNAYHFSLLLTSFNCVADPVLYCFVSETTHRDLARLRGACLAFLTCSRTGRAREAYPLGAPEASGKSGAQGEEPELLTKLHPAFQTPNSPGSGGFPTGRLA

Legend:
[1] = variants of: B1; test: cAMP reporter score (Enrich2 score, wild type = 0); higher = more signal; HEK293T, FACS bins
[2] = variants of: B1; test: surface expression score (Enrich2 score, wild type = 0); higher = more signal; HEK293T, FACS bins

Variant	cAMP reporter score ([1]; pH 5.5)	cAMP reporter score ([1]; pH 6)	cAMP reporter score ([1]; pH 6.5, modulator: ogerin)	surface expression score [2]	cAMP reporter score ([1]; pH 6, modulator: ogerin)
L82_Q83insG	-1.48	-2.06	-2.29	0.805	–
L82_H84del	-0.795	-1.1	-1.32	0.9	-1.69
V81_L82insG	-0.813	-0.212	-0.968	-0.147	-1.49
N86_W87del	-1.87	0.608	-0.571	-0.766	-1.71
V81_L82insGS	-1.79	-1.36	-0.87	-0.92	-1.43
S73R	-0.421	–	-0.395	-0.283	-0.694
S73G	0.476	–	-0.695	0.078	0.388
S73D	0.421	–	-0.928	–	-0.748
S73C	0.209	2.21	0.334	0.58	0.395
S73K	-1.18	-0.255	–	–	–
S73Q	-0.88	-0.654	-1.9	-1.37	-1.29
S73E	-1.21	-1.22	-1.84	-2.16	-1.73
S73Y	-1.81	-0.662	-0.99	-0.814	-0.88
S73V	0.174	-0.267	-0.824	-2.42	-0.93
S73F	-0.901	-0.69	-0.688	-0.527	-0.885
S73M	-0.428	-1.09	-0.61	–	–
S73L	-1.06	–	-1.46	-0.485	-1.53
S73P	-0.736	-0.384	-0.411	-0.664	-0.755
S73I	-1.64	-1.13	-1.41	-1.42	-2.47
S73H	-0.713	-0.009	-0.942	-1.77	-1.16
S73T	0.493	-0.389	0.754	1.25	0.345
S73W	-1.41	-1.19	-1.08	-0.788	-1.2
S73A	0.234	0.031	0.748	-0.941	0.311
V81_Q83del	-1.28	0.002	-0.398	0.038	-0.909
W87Y	-0.929	-0.181	-1.62	0.67	-0.635
W87R	-0.917	-1.29	-1.07	0.007	-1.3

Variant	cAMP reporter score ([1]; pH 5.5)	cAMP reporter score ([1]; pH 6)	cAMP reporter score ([1]; pH 6.5, modulator: ogerin)	surface expression score [2]	cAMP reporter score ([1]; pH 6, modulator: ogerin)
W87M	-1.6	-0.728	-0.588	-0.83	-0.968
W87T	-0.625	–	-0.303	-0.006	-1.34
W87E	-1.49	-1.47	-1.14	-0.445	–
W87D	-1.94	–	-1.38	-0.594	–
W87L	-1.42	–	-0.84	0.213	–
W87A	-0.652	-0.553	-0.001	-1.4	-1.82
W87P	-0.557	-1.21	-1.18	-0.29	-0.329
W87F	-1.44	-1.06	-1.75	-0.553	-1.86
W87C	-1.98	-0.965	-1.39	-0.733	-1.59
W87V	-1.17	-0.232	-0.439	0.309	-1.63
W87S	-1.39	-0.545	-0.747	0.545	-1.24
W87N	-1.94	-0.74	-1.16	-1.33	-0.497
W87H	-1.45	-0.51	-0.679	-0.045	-1.09
W87Q	-1.04	-0.342	-0.996	-1.5	-1.37
W87I	-0.56	-0.479	-0.883	-1.78	-0.669
W87K	-1.69	-0.957	-1.15	-0.465	-1.71
W87G	-1.83	-1.14	-1.61	-0.576	-0.6
L82W	0.145	-0.548	-0.595	1.58	-0.287
L82P	-0.697	-0.425	-0.614	-0.353	-0.882
L82T	-0.199	-1.12	–	0.085	-0.524
L82M	-0.841	-0.086	-1.04	-1.36	-1.23
L82I	1.74	–	1.59	1.39	1.27
L82N	-0.748	-1.1	-1.16	0.258	-0.731
L82A	-0.851	-1.14	-0.639	-0.188	-1
L82E	-0.005	–	-0.305	0.242	0.174
L82H	-0.413	–	-0.777	-0.661	–

Variant	cAMP reporter score ([1]; pH 5.5)	cAMP reporter score ([1]; pH 6)	cAMP reporter score ([1]; pH 6.5, modulator: ogerin)	surface expression score [2]	cAMP reporter score ([1]; pH 6, modulator: ogerin)
L82D	-1.84	-0.041	-1.45	-0.967	-1.29
L82V	-0.065	-0.419	-0.351	0.238	-0.104
L82K	-0.831	-0.134	0.868	1.44	-0.685
L82R	-0.959	-0.845	-0.331	-0.319	-0.911
L82C	-0.655	-0.803	-0.772	-1.25	–
L82G	-0.672	0.286	0.252	-0.881	-0.189
L82F	-0.501	-0.313	-0.523	-0.406	-0.592
L82Y	-0.765	-1.11	0.099	1.7	-0.245
Y80_V81insGS	-1.73	-1.42	-0.903	-1.13	-1.58
L74_F76del	-1.24	–	-1.33	-3.36	-1.29
Q83_H84del	-2.12	-1.05	-1.31	-1.5	-1.15
D85S	-0.284	-0.704	-0.248	-0.159	-0.218
D85E	-0.289	-0.149	-0.625	1.38	-0.558
D85L	-0.917	-1.07	-0.615	-2.22	-0.776
D85V	-0.854	-1.34	–	-2.15	-0.954
D85F	0.028	-0.323	-0.577	-1.22	0.178
D85R	-0.839	-0.939	0.742	-0.204	0.137
D85N	-0.15	0.052	1.1	-0.854	-0.045
D85K	-1.27	-0.773	-0.681	0.642	-1.78
D85Q	-0.345	–	0.574	0.652	-0.181
D85G	-0.111	-0.485	-0.346	0.725	0.335
D85C	-0.446	-0.369	0.993	-1.98	0.336
D85I	-1.43	-0.97	-0.731	-2.08	-0.898
D85T	-0.386	–	-0.394	0.472	-1.05
D85P	-1.45	-1.24	-1.42	0.848	-1.86
D85W	-0.206	-0.352	-0.232	-1.74	-0.364

Variant	cAMP reporter score ([1]; pH 5.5)	cAMP reporter score ([1]; pH 6)	cAMP reporter score ([1]; pH 6.5, modulator: ogerin)	surface expression score [2]	cAMP reporter score ([1]; pH 6, modulator: ogerin)
D85M	-0.489	-0.486	-0.227	-1.18	-0.777
D85H	-0.175	0.789	0.189	-0.757	-0.472
D85A	-1.46	-0.95	-1.07	-0.03	-0.616
N86_W87insGSG	-1.05	-0.136	-0.607	1.15	-0.967
L78_Q79del	-1.1	-0.925	-0.391	-0.19	-0.482
H89M	0.443	0.757	1.05	0.266	0.621
H89E	-1.14	-1.17	-0.826	0.734	–
H89D	-0.842	-1.08	-1.17	0.327	-1.04
H89G	0.212	0.639	0.934	0.551	-0.395
H89F	0.195	1.51	1.71	-0.644	0.275
H89I	0.316	-0.817	-0.997	1.19	0.37
H89N	0.388	0.899	-0.498	1.01	-0.984
H89C	-1.39	-0.034	-0.964	0.212	-2.48
H89L	0.17	1.25	1.33	-0.728	0.839
H89K	-1.18	1.46	-0.662	1.15	–
H89A	-0.806	-1	-1.23	0.886	-1.38
C72_S73insGSG	-1.16	–	-0.985	-3.85	–
Y80_V81insGSG	-1.91	–	-1.75	-2.11	-1.04
F76_L78del	-1.38	-0.509	-0.754	-2.8	-2.16
I71Q	-1.22	-0.777	-0.278	-2.66	-0.572
I71R	-0.897	-0.021	-1.94	–	-2.58
I71T	0.335	-0.313	-1.31	-1.07	-0.439
I71W	-0.496	-1.7	-0.195	-3.06	–
I71V	0.62	0.392	-0.469	-0.011	-0.04
I71Y	-1.81	-1.05	-1.73	-1.91	-1.23
I71S	-1.05	-0.971	-1.76	-2.06	-1.93

Variant	cAMP reporter score ([1]; pH 5.5)	cAMP reporter score ([1]; pH 6)	cAMP reporter score ([1]; pH 6.5, modulator: ogerin)	surface expression score [2]	cAMP reporter score ([1]; pH 6, modulator: ogerin)
Q79_Y80insG	-0.735	-0.459	0.095	-0.591	-1.9
F76_W77insG	-0.827	-0.506	–	-1.38	-1.04
Q83_D85del	-0.953	-0.69	-0.67	-0.4	-1.78
W77_L78insGSG	-0.846	-0.456	-0.162	–	-1.19
Q83_H84insGSG	-1.71	-1.46	-0.342	0.465	-1.53
N86M	-1.89	-1.72	-1.25	-0.644	–
N86G	-1.51	-0.285	-0.574	0.42	-0.883
N86W	-1.31	-0.403	-0.72	-1.82	-1.24
N86T	-1.1	-0.809	-1.72	0.644	-0.629
N86A	-1.02	-0.914	-1.27	0.259	-0.695
N86D	-0.291	0.961	0.193	-0.042	0.218
N86S	-1.33	-0.152	-0.607	-0.194	-0.942
N86F	-0.587	–	-2.44	-0.375	-0.89
N86H	1.46	–	2.96	-0.753	0.087
N86K	-1.68	0.68	-1.41	0.573	-2.14
N86Q	-1.55	-0.413	-0.428	1.34	-1
N86P	-1.67	-1.4	-1.08	-1.89	-2.12
N86R	-0.603	-0.696	0.144	1.03	-1.48
N86C	-1.62	-1.17	-1.04	0.207	-1.3
N86V	-1.39	-0.546	-1.27	-0.811	-0.927
N86Y	-1.56	-1.04	-1.63	-0.603	–
N86E	-0.808	-1.79	-0.136	0.002	-2.5
N86I	-0.945	–	-1.13	-1.2	-2.45
